Experimental data from the supplement of paper PMC4967469.
Lines with a small IC50 respond at low doses; a fit beyond the top or the lowest dose is shown as a bound at that dose. The AUC spans the tested range (256-fold, ending at the top dose) of the same fit; values near 1 show little effect. For some assays here: Any top dose called inferred is not printed in the source and was worked back from the curve model. For some assays here: An entry number marks a drug with two screens in the source, which often give different values.

Experiments:
Assay in all cases: Viability of human cancer cell lines after 72 h of drug (GDSC screen)
[1] = compound: CC1(C)CNc2cc(NC(=O)c3cccnc3NCc3ccncc3)ccc21 [AMG-706]; settings: top dose 2 µM; top dose inferred
Protocol: (§1)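 Human cancer cell lines in 384-well plates, medium with 10% serum, drug for 72 h over a 256-fold dose range (nine 2-fold or five 4-fold steps up to the top dose). Adherent lines were fixed and stained with the nucleic acid dye Syto60, suspension lines read with resazurin; signal relative to control wells, capped at 0 and 100%. One two-parameter sigmoid per drug and line, fitted in a mixed model over all curves with the slope shared within a line.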

[2] = compound: CCOc1nc(NC(=O)Cc2cc(OC)ccc2OC)cc(N)c1C#N [JNK Inhibitor VIII]; settings: top dose 10 µM; top dose inferred
Protocol: as §1

[3] = compound: Cc1sc2c(c1C)C(c1ccc(Cl)cc1)=N[C@@H](CC(=O)OC(C)(C)C)c1nnc(C)n1-2 [JQ1]
Protocol: as §1

[4] = compound: c1ccc2c(CCNc3ccc(Nc4ccncc4)cc3)c[nH]c2c1 [JNJ-26854165]; settings: top dose 10 µM
Protocol: as §1

[5] = compound: CN1CCN(c2ccc([N+](=O)[O-])c3no[n+]([O-])c23)CC1 [NSC-207895]; settings: top dose 20 µM; top dose inferred
Protocol: as §1

[6] = compound: COC(=O)[C@H](CCSC)NC(=O)c1ccc(NC[C@@H](N)CS)cc1-c1ccccc1 [FTI-277]; settings: top dose 1.024 µM; top dose inferred
Protocol: as §1

[7] = compound: COCC[n+]1c2c(n(Cc3cnccn3)c1C)C(=O)c1ccccc1C2=O [YM155]; settings: top dose 5.12 µM
Protocol: as §1

[8] = compound: C[C@]1(O)C[C@@H](c2nc(-c3ccc4ccc(-c5ccccc5)nc4c3)c3c(N)nccn32)C1 [OSI-906]; settings: top dose 2.56 µM; top dose inferred
Protocol: as §1

[9] = compound: Cc1ccc(C(=O)N(CCCN)[C@@H](c2nc3cc(Cl)ccc3c(=O)n2Cc2ccccc2)C(C)C)cc1 [SB-715992]; settings: top dose 0.128 µM; top dose inferred
Protocol: as §1

[10] = compound: O=C(/C=C/c1cccc(S(=O)(=O)Nc2ccccc2)c1)NO [Belinostat]; settings: top dose 20 µM; top dose inferred
Protocol: as §1

[11] = top dose 1 µM, screen: GDSC drug entry 1218, top dose inferred
[12] = top dose 2.56 µM, screen: GDSC drug entry 163

Cell Line | AUC [1] | IC50 [1] [µM] | AUC [2] | IC50 [2] [µM] | AUC [3, 11] | IC50 [3, 11] [µM] | AUC [4] | IC50 [4] [µM] | AUC [5] | IC50 [5] [µM] | AUC [6] | IC50 [6] [µM] | AUC [7] | IC50 [7] [µM] | AUC [8] | IC50 [8] [µM] | AUC [9] | IC50 [9] [µM] | AUC [3, 12] | IC50 [3, 12] [µM] | AUC [10] | IC50 [10] [µM]
DIFI (large intestine, adherent) | 0.987 | > 2 | 0.987 | > 10 | 0.986 | > 1 | 0.94 | > 10 |  |  |  |  |  |  |  |  |  |  |  |  |  | 
CAMA-1 (breast, adherent) |  |  |  |  | 0.982 | > 1 | 0.886 | > 10 | 0.924 | > 20 | 0.956 | > 1.02 | 0.204 | 0.033 | 0.973 | > 2.56 | 0.861 | > 0.128 | 0.447 | 0.111 | 0.483 | 1.11
SW1463 (large intestine, adherent) |  |  |  |  | 0.97 | > 1 | 0.94 | > 10 | 0.977 | > 20 | 0.971 | > 1.02 | 0.966 | > 5.12 | 0.889 | > 2.56 | 0.893 | > 0.128 | 0.819 | > 2.56 | 0.697 | 6.73
SK-GT-2 (stomach, adherent) | 0.964 | > 2 | 0.974 | > 10 | 0.984 | > 1 | 0.86 | 9.16 |  |  |  |  |  |  |  |  |  |  |  |  |  | 
KP-4 (pancreas, adherent) |  |  |  |  | 0.986 | > 1 | 0.878 | 9.41 | 0.988 | > 20 | 0.98 | > 1.02 | 0.024 | < 0.02 | 0.986 | > 2.56 | 0.442 | 0.00559 | 0.852 | 1.85 | 0.445 | 0.893
CRO-AP2 (B-cell lymphoma, suspension) | 0.989 | > 2 | 0.99 | > 10 | 0.989 | > 1 | 0.83 | 5.16 |  |  |  |  |  |  |  |  |  |  |  |  |  | 
KATOIII (stomach, semi-adherent) | 0.877 | 1.72 | 0.987 | > 10 | 0.987 | > 1 | 0.94 | > 10 |  |  |  |  |  |  |  |  |  |  |  |  |  | 
IM-95 (stomach, adherent) |  |  |  |  | 0.984 | > 1 | 0.877 | > 10 | 0.982 | > 20 | 0.981 | > 1.02 | 0.255 | 0.06 | 0.906 | > 2.56 | 0.839 | 0.0963 | 0.557 | 0.231 | 0.486 | 1.14
